# Reference: PubChem BioAssay AID686979 (National Center for Advancing Translational Sciences (NCATS), 2013)
# “And” between values parts separate entries of the source, which are not always exact repeats. Equal entries are not always repeated. Screen size: about 420,000 compounds; about 50,000 (12%) were called active. This list was built around the results that the source calls inconclusive (neither active nor inactive); the mix of calls is not that of the screen. The call rests on the fitted dose curve; in most records, active means well fitted inhibition curve with a large enough effect; inconclusive means small, poorly fitted or top-dose-only effect; inactive means flat fitted curve, though single readings scatter. Where the call is inconclusive, the potency comes from a doubtful curve fit.
# Assay: qHTS for Inhibitors of human tyrosyl-DNA phosphodiesterase 1 (TDP1): qHTS in cells in presence of CPT; further: nearly all actives have a fitted effect of over 55% in size
# Details: chicken DT40 Tdp1-/-;hTDP1 cells + 20 nM CPT, ATP luminescence, 48 h; activity change, negative = growth inhibition: at 46.2 µM (top of the series) unless noted
# Method in brief: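 Cell growth measured by CellTiter-Glo luminescence after a minimum 48 h, 37 C compound exposure with 20 nM CPT in Tdp1-knockout DT40 cells stably expressing hTDP1, seeded 400/well; qHTS titration format.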
# On the % scale 0 is the no-effect control and ±100 the full control effect; potency means the concentration at half of the fitted maximal effect; tags describe the fitted curve by direction and shape.
SMILES,Potency,"activity change, negative = growth inhibition"
C[C@H](CO)N1C[C@H](C)[C@H](CN(C)C(=O)Cc2ccncc2)Oc2ncc(Br)cc2C1=O,inactive,–
CCOC(=O)c1cnc2c(-c3ccc(F)cc3)cnn2c1C(F)(F)F,"inconclusive: 14.6 µM [inhibitor, partial curve]",–
CCN(CC(=O)Nc1ccc2c(c1)OCCO2)C(=O)c1cc(=O)[nH]c2ccccc12,inactive,–
CC(C)CN1CC[C@@]2(CCCN(S(=O)(=O)c3ccccc3)C2)C1,inactive,–
O=C(NCCc1ccccc1)C1CCN(S(=O)(=O)c2ccc(-n3cnnn3)cc2)CC1,"inconclusive: 29.1 µM [inhibitor, single point]",–
N#CC(C#N)=C(N)/C(C#N)=C/c1cc(O)c(O)c(O)c1,"inconclusive: 29.1 µM [inhibitor, single point] and inconclusive: 25.9 µM [inhibitor, single point]",–
O=C1OCC2=C1C(c1ccc(Cl)cc1)c1cc3c(cc1O2)OCO3 (centres undefined),active: 29.1 µM,–
Cc1ccc(OCc2cc(C(=O)NCC3COCCO3)no2)cc1C (centres undefined),"inconclusive: 16.4 µM [inhibitor, partial curve]",–
COC(=O)C1=C(C)Nc2nc(-c3ccccc3)nn2C1c1ccc(C)o1 (centres undefined),"inconclusive: 16.4 µM [inhibitor, partial curve, poor fit]",–
Cc1ccc(CCNC(=O)CCn2nc(-c3ccccc3)ccc2=O)cc1,"inconclusive: 29.1 µM [inhibitor, single point]",–
Cc1cccc(OCCSc2nc(N)cc(N)n2)c1,"inconclusive: 29.1 µM [inhibitor, single point]",–
COCCNC(=S)Nc1ccc2[nH]c(=O)[nH]c2c1,inactive,–
C#CC(=O)N(c1cccc(OC)c1)C(C(=O)NC1CCCC1)c1cccs1 (centres undefined),active: 1.03 µM,–
CCOC(=O)C1Nc2ccccc2C2c3ccccc3CC12 (centres undefined),active: 20.6 µM,–
COc1ccc(CCC(=O)Nc2ccc(S(=O)(=O)N3CCOCC3)cc2)cc1,–,inconclusive: -35% [inhibitor]
CNC(=O)c1c(NC(=O)c2cc(-c3cc(C)c(C)cc3O)n[nH]2)sc2c1CCCC2,"inconclusive: 29.1 µM [inhibitor, single point]",–
CCN1C(=O)[C@H]2[C@H]3CN=C(SCc4ccc(C#N)cc4)N3[C@@](Cc3ccccc3)(C(=O)OC)[C@H]2C1=O,"inconclusive: 29.1 µM [inhibitor, single point]",–
CN(C)/C=C(\C(=O)c1ccc(F)cc1F)c1nnnn1-c1ccccc1,inactive,–
Cc1ccccc1NC(=O)N1CCc2c(sc3c2CCCC3)C1c1ccccc1 (centres undefined),"inconclusive: 29.1 µM [inhibitor, single point]",–
